Assay results published in a collection of fitness landscapes (doi:10.1126/science.1257360).
Some of the results follow.

B1: PhoQ; a variant is named by its letters at X, in order, P23837 (parent)
chain: MKKLLRLFFPLSLRVRFLLATAAVVLVLSLAYGMVALIGYSVSFDKTTFRLLRGESNLFYTLAKWENNKLHVELPENIDKQSPTMTLIYDENGQLLWAQRDVPWLMKMIQPDWLKSNGFHEIEADVNDTSLLLSGDHSIQQQLQEVREDDDDAEMTHSVAVNVYPATSRMPKLTIVVVDTIPVELKSSYMVWSWFIYVLSANLLLVIPLLWVAAWWSLRPIEALAKEVRELEEHNRELLNPATTRELTSLVRNLNRLLKSERERYDKYRTTLTDLTHSLKTPLXXLQXXLRSLRSEKMSVSDAEPVMLEQISRISQQIGYYLHRASMRGGTLLSRELHPVAPLLDNLTSALNKVYQRKGVNISLDISPEISFVGEQNDFVEVMGNVLDNACKYCLEFVEISARQTDEHLYIVVEDDGPGIPLSKREVIFDRGQRVDTLRPGQGVGLAVAREITEQYEGKIVAGESMLGGARMEVIFGRQHSAPKDE

Variants of: B1
Assay: enrichment ratio after two sorts for PhoP signalling (ratio (wild type AVST 3.29)); higher = more functional
Details: with PhoP (E. coli)

Variant | enrichment ratio
RHGT | ≤ 0.25
MEHR | ≤ 0.25
NLWY | ≤ 0.25
RHEW | ≤ 0.25
DAQM | ≤ 0.25
IICH | ≤ 0.25
FKRS | ≤ 0.25
TQKV | ≤ 0.25
YREK | ≤ 0.25
VHNF | ≤ 0.25
FLGG | ≤ 0.25
NCYH | ≤ 0.25
LAYM | 4.09
APRA | ≤ 0.25
MFAM | ≤ 0.25
KKCT | ≤ 0.25
DWWS | ≤ 0.25
YGLY | 0.346
SHRE | ≤ 0.25
FITV | ≤ 0.25
MNCN | ≤ 0.25
NWLT | ≤ 0.25
IQFA | ≤ 0.25
YHAA | ≤ 0.25
LNEV | ≤ 0.25

Variant | enrichment ratio
WNLR | ≤ 0.25
RNIT | ≤ 0.25
RQDK | ≤ 0.25
LMWP | ≤ 0.25
GSVF | 0.933
AWMR | ≤ 0.25
IDMN | ≤ 0.25
PTAF | ≤ 0.25
KNTN | ≤ 0.25
TGSE | 7.38
QEGV | ≤ 0.25
VNWV | ≤ 0.25
KNSN | ≤ 0.25
TISW | 2.99
SDTR | ≤ 0.25
VNRT | ≤ 0.25
NWPG | ≤ 0.25
DIVM | ≤ 0.25
YGNL | ≤ 0.25
NAFT | ≤ 0.25
NCTM | ≤ 0.25
NPAC | ≤ 0.25
YNDM | ≤ 0.25
YCYG | ≤ 0.25
PIPS | ≤ 0.25

Variant | enrichment ratio
AWTT | ≤ 0.25
VFQM | ≤ 0.25
WADF | ≤ 0.25
TVPR | ≤ 0.25
PAMR | ≤ 0.25
SIKK | ≤ 0.25
THAF | ≤ 0.25
RAYT | ≤ 0.25
HLDQ | ≤ 0.25
HFFE | ≤ 0.25
HCRW | ≤ 0.25
IPEH | ≤ 0.25
YDKM | ≤ 0.25
PRNW | ≤ 0.25
EMRI | ≤ 0.25
IMVP | ≤ 0.25
YFYE | ≤ 0.25
PFIW | ≤ 0.25
SYSG | 1.01
SQMG | 20.8
MQRL | ≤ 0.25
RIMF | ≤ 0.25
YYSA | ≤ 0.25
KMFI | ≤ 0.25
PMKN | ≤ 0.25

Variant | enrichment ratio
IHGT | ≤ 0.25
YQVA | ≤ 0.25
WYVD | ≤ 0.25
TTCT | 12.8
TQVD | ≤ 0.25
NWIH | ≤ 0.25
ELKI | ≤ 0.25
NGNW | ≤ 0.25
YKEV | ≤ 0.25
WQST | ≤ 0.25
AIPM | 7.17
EVDR | ≤ 0.25
YRTN | ≤ 0.25
WNCM | ≤ 0.25
NSLM | 7.81
DCTT | ≤ 0.25
MTLK | ≤ 0.25
NRVL | ≤ 0.25
DQLV | ≤ 0.25
EYDP | ≤ 0.25
DFRI | ≤ 0.25
ALVA | ≤ 0.25
QRVM | ≤ 0.25
AELE | 4.35
VSCN | ≤ 0.25

Variant | enrichment ratio
IAAA | ≤ 0.25
YVFQ | ≤ 0.25
TMGN | 2.42
SIFK | 0.535
SCIV | 1.12
GKGN | ≤ 0.25
LADM | ≤ 0.25
THCE | ≤ 0.25
AMHI | ≤ 0.25
DTFR | ≤ 0.25
YHIY | ≤ 0.25
DVSQ | ≤ 0.25
EDIV | ≤ 0.25
KQTM | ≤ 0.25
AQFE | ≤ 0.25
PVQY | ≤ 0.25
FFHG | ≤ 0.25
VYAI | ≤ 0.25
CFVW | ≤ 0.25
TEYL | 13
DWHT | ≤ 0.25
AQID | 6.46
IFCR | ≤ 0.25
TQNN | 10.7
GRCN | ≤ 0.25

Variant | enrichment ratio
MESN | 7.39
VTQT | ≤ 0.25
LCYC | ≤ 0.25
QFLV | ≤ 0.25
LIIC | 1.65
KIND | ≤ 0.25
MQWE | ≤ 0.25
IHDH | ≤ 0.25
DGYV | ≤ 0.25
FDNQ | ≤ 0.25
QEVC | ≤ 0.25
LDHR | ≤ 0.25
YYPC | ≤ 0.25
YTTV | ≤ 0.25
QMDN | 6.52
MGYH | ≤ 0.25
VALN | 6.33
GHGA | ≤ 0.25
YVCH | 0.383
LGED | ≤ 0.25
DCPL | ≤ 0.25
QKNR | ≤ 0.25
HDGN | ≤ 0.25
RLCL | ≤ 0.25
FMVF | ≤ 0.25

Variant | enrichment ratio
RANW | ≤ 0.25
WEMW | ≤ 0.25
PMVR | ≤ 0.25
PNQC | ≤ 0.25
NIAM | ≤ 0.25
DFCL | ≤ 0.25
ADKM | ≤ 0.25
QMIM | ≤ 0.25
FWCL | ≤ 0.25
WESW | ≤ 0.25
RLPQ | ≤ 0.25
TFYL | ≤ 0.25
GCFG | ≤ 0.25
WWLS | ≤ 0.25
MGAK | ≤ 0.25
TLKC | ≤ 0.25
QTFD | ≤ 0.25
ACIS | 2.09
SAYE | ≤ 0.25
FAPS | ≤ 0.25
HYKS | ≤ 0.25
LHAV | ≤ 0.25
SNPN | ≤ 0.25
GCYK | ≤ 0.25
RKRR | ≤ 0.25

Variant | enrichment ratio
EGVP | ≤ 0.25
SDPY | ≤ 0.25
AHAI | ≤ 0.25
AFQF | ≤ 0.25
IWKK | ≤ 0.25
FQPP | ≤ 0.25
FQWG | ≤ 0.25
FVQG | ≤ 0.25
TGKC | ≤ 0.25
YFLI | ≤ 0.25
GYMF | ≤ 0.25
LCQY | ≤ 0.25
KQHI | ≤ 0.25
FTER | ≤ 0.25
HEPI | ≤ 0.25
VTDW | ≤ 0.25
YQFH | ≤ 0.25
KDRR | ≤ 0.25
PNRQ | ≤ 0.25
ELLE | ≤ 0.25
